Laboratory results from the supplement of paper PMC3334620.
Whole data set: some 33,000 sequences, median “E-score (-0.5 to 0.5)” near -0.04, cut for the highest 2% near 0.36. This is one part of the list.

These sequences were tested against T1, Hmlalpha2 (UniProt P0CY09) (assay: PBM E-score (8-mer binding enrichment) (E-score (-0.5 to 0.5)); higher = stronger / more preferred TF binding; most listed sequences are background and not binding sites). Conditions: protein concentration: 200 nM; construct: GST-full length.
T1 sequence: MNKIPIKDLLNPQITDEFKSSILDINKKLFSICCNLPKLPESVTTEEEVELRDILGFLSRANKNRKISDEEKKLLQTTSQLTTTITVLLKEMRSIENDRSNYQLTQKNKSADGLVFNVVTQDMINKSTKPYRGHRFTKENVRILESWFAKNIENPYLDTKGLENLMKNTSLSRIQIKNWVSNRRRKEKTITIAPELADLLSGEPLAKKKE
Outline: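 Using PURExpress in vitro transcription/translation, GST-tagged yeast transcription factors were made in full-length or DNA-binding-domain form. These were applied at about 100-200 nM to double-stranded universal all-10-mer Agilent arrays, and bound protein was detected with fluorescent anti-GST. Scans were normalised with masliner before the Universal PBM Analysis Suite assigned E-scores to ungapped eight-base words pooled with their reverse complements.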

Sequence	PBM E-score
AGTGACAT	0.243
GCCAGGAA	-0.0164
GAGCGCTA	-0.0987
AACACGTA	0.41
GACCGTCC	-0.302
AACGTAGG	-0.0759
GTTATCCA	0.0731
CCATAGAC	-0.203
AATTCATA	0.0101
CCAGTTAA	0.229
ACTCTGCC	-0.095
CTGTTTAC	0.371
CTCCTAAC	0.0477
ACCGAGAA	-0.178
ACGCACTG	0.0609
AAAAGACA	0.118
CCACGCGG	-0.203
CCCATTAA	0.207
GAGTGGGA	-0.189
ACAGCAGG	0.0218
CATGGAAA	0.229
AATCATCA	-0.0656
ATGACGGA	0.00302
GCTATTTA	0.146
GAAGCATA	-0.0521

Sequence	PBM E-score
CTCGCAGC	-0.237
CGACATAA	0.273
AGCTATAC	0.104
ACCGATGG	-0.143
GAAGTTGC	-0.116
ACGTGTTG	0.415
CGTCCCAG	-0.228
GTAGGCCA	-0.034
AGATGCTC	-0.0672
CAGTGGCG	-0.21
AATGTCCT	0.00569
ATGGCTCA	-0.19
CACGATCA	0.252
CGCATGCC	-0.0671
ACCTGCGG	-0.228
AGGTACTC	0.0834
AGCTGAAA	0.0678
AACCTGAC	-0.00028
AGGACTCA	-0.0708
AGACCTCA	-0.0103
ACCTTAGT	0.00079
CCCAACGA	-0.0584
GACGACTC	-0.279
TAAGCAGA	0.00375
CCAACGCA	0.149

Sequence	PBM E-score
ACTCGTGC	-0.202
GAAGTTTA	0.137
AGTCGGCG	-0.0609
GAGGGATC	-0.209
CCCAGGGC	-0.289
GGTCAAAA	0.055
CATGGCTC	0.115
CATGTGAA	0.318
CCAATGTC	-0.0124
ACCGGACC	-0.169
AACAGGAT	-0.00697
AAAAGGAA	-0.011
CTTTGGCA	-0.283
GGGCCAAC	-0.0699
GGAATGTA	0.18
GACTCTGC	-0.314
CTACCTAA	0.0141
AGCTGGAC	-0.0393
AAAACTAC	0.202
ACCGACCT	-0.141
CCCTAGTA	0.0374
CTCCACGC	-0.249
GCGTCCCC	-0.358
CATGGTGA	0.0496
CGCTCGAG	-0.123

Sequence	PBM E-score
AGGGTGGC	-0.316
ACTCGCCT	-0.121
CTACTCCA	-0.142
GACTGAGA	-0.102
GCTACTTA	0.0271
ACTAACGG	-0.168
ATGGCGTA	0.0186
GATAACAA	0.324
GAAGACTA	-0.048
GATGGCCC	-0.256
AAGCCAGA	-0.0598
AACCTAAT	-0.0243
ATTCCGCG	-0.0728
ACTACCGA	-0.12
CTGCCTGA	0.0519
AATATGAA	-0.00341
CAGCTCGG	-0.148
GTATCGGA	-0.075
ACACGAAT	0.356
GGACGCAC	-0.22
GTAGAATA	0.308
TCCACGCA	-0.0321
CTAGCAAC	0.107
ACGTGACG	0.0289
CACGGAAA	0.146

Sequence	PBM E-score
ATCACAAT	-0.00916
GAGTCCGC	-0.243
TAGATGGA	0.0236
CCCAGTCC	-0.121
CCACAGCC	-0.131
CCCACTGA	-0.133
AGCAGACA	-0.0775
CACAAAGG	-0.0549
ACGGACAT	-0.0204
ACCAAGGG	-0.184
AATTCAAA	0.148
GGGTGTAA	0.342
ATAGTCAA	-0.0286
GGTCGCGA	-0.177
AGGGTGCC	-0.313
GTGACATA	0.246
CTCCAGAG	-0.337
CCTCCTAG	-0.298
AGGACTGG	-0.0983
ACCTAATA	0.0446
ATCCTAAA	-0.188
GGACATGA	-0.0328
ACAACTAA	0.258
ACTGACAA	0.218
GCAAGTCA	-0.0183

Sequence	PBM E-score
GTGCTTAA	0.0902
CCAGAAGG	-0.0879
GACCTCCC	-0.345
ACATTTTC	0.106
ATCGTCAC	0.123
CGCTAACC	-0.0928
TAGGATAA	-0.0114
TCGGGGCA	-0.223
TCATCGGA	-0.0992
AGGAAGAC	-0.0908
ACACGATG	0.388
GGTATAAC	0.0399
GCATTAAC	0.249
ATCGGCGC	0.133
ACGCCTCA	0.0996
AAATAAGG	-0.0558
AGCTCCAC	-0.194
CACCAGAG	-0.0421
TAGCGACA	0.124
GTTACTTA	0.141
AGTTTTAG	-0.017
GCGCCCGA	-0.126
AAGACGCA	0.00981
CGTCTTGA	-0.0718
AACAGAAA	0.169

Sequence	PBM E-score
ACGATGGC	-0.0988
GTACAACA	0.395
GTACACAA	0.373
GCAGGAAC	-0.205
CTATGACA	0.0374
CATGCCGG	0.156
CGCGTTCA	0.302
ATACATGC	0.427
CCATTATA	-0.101
ATGGTTTA	0.122
CTCGTTGC	0.227
TACTGGGA	-0.0503
TGTGTTAA	0.471
ACCCGAGG	-0.126
CGAAAGAA	-0.0556
AGTGCGAC	-0.234
AGCGAGGG	-0.264
AGATTTAG	-0.00902
TACATTAA	0.336
CTCTTGTC	-0.0028
ATGGCCAA	-0.0102
GTGTAATA	0.456
GCGGGCCA	-0.246
ATCAAAGG	-0.197
ACGCCATC	-0.107

Sequence	PBM E-score
CAAGGGCA	-0.179
ATGAGACC	-0.0323
ATTCATGA	0.11
CCACCGAA	-0.0581
ACATGGTA	0.397
AATTATCC	0.12
CTAAGAAG	0.056
CAAACCCA	0.0867
GAGCGACC	-0.227
CACTCCCG	-0.195
CGGACAAG	-0.065
AGTAAATC	0.0526
AACACGCC	0.359
GGATAAGA	-0.195
AAGATTGA	0.0865
GAAATGTC	-0.0503
GAATAGTA	0.0834
CGTATCCA	-0.0445
ACGGACTC	-0.148
ACTGAGAA	-0.145
GCAACCCC	-0.297
ATGACGAG	-0.00166
CGGGATTA	0.113
ATAAATGG	-0.0033
ACATTTAT	0.172

Sequence	PBM E-score
GCTCTTTA	-0.116
CTCTCTGC	-0.211
ACCCACGT	0.14
AAACGGTA	0.0331
ATCGTTGA	0.0647
AGCATTAG	-0.0284
CACCTTAG	-0.0391
ATCGTCAA	0.0582
ACTCTACA	0.33
AGCACGCT	0.00597
CACTCCGA	-0.161
TCCATGCA	-0.00149
AAAGGTCG	-0.202
CTTACGTC	-0.0765
TCATTAAA	0.263
GTTATGGA	0.143
CTTAGTAA	0.257
TCTTAAAA	-0.0174
ACTGTAGG	0.0358
ACGAAGGA	-0.00764
GGACGCGA	-0.0509
AGCTGTAT	-0.027
ACCTTACC	0.0897
CCGCTAGC	-0.337
TAGCAACA	0.204

Sequence	PBM E-score
AGTGGTTG	0.107
ACGGCGTG	0.0339
CGAGTTTC	-0.0908
GAATAGCC	-0.332
GAAGGACC	-0.245
ATGAACAA	0.156
AACAGCGA	-0.0401
GAGGCTAC	-0.193
AATAGGCA	-0.0175
CGAATGTC	0.0317
AGTGCTTG	0.11
AACATACG	0.363
CTCTCCTA	0.0238
ATTTGCCG	-0.0971
AATGCCCG	-0.274
AAGCACCA	-0.113
CCTCTGCC	-0.274
ACCAATAG	-0.129
CACTGGAA	-0.0941
AAGCTCGT	0.0158
GAGCGAGA	-0.0406
ATTCTTTC	0.0138
GACAAGCA	0.0167
ACTGGAAA	0.0244
GGCCTGAC	-0.316

Sequence	PBM E-score
ACATTAGG	0.0208
GAGGCGAA	-0.175
CTTGACAA	0.24
CGAGGGTC	-0.208
ATGTGGGA	-0.0345
GCTGTACA	0.154
AATTTGCG	0.0144
GAACATTC	0.0675
ACAGAAGT	0.0501
TCACCTGA	-0.136
ATCGATCA	-0.0362
CCGTAAAC	0.199
CCATGGAC	-0.195
GCCAGCCC	-0.215
AGGCGACC	-0.0251
GATCATCA	-0.0693
ACGCCTCT	-0.0552
CGCCGATA	-0.141
ATCGCGCG	0.0993
ACCGAAGC	-0.195
ACGAAGGC	-0.296
CCGCAGGA	-0.231
CGAGCCTC	-0.379
CCAAAAGA	0.11
GGGTATGA	-0.0878

Sequence	PBM E-score
AGGCGAGC	-0.192
GTTAGCAA	0.172
CACCGACG	0.00164
CCCATAAG	-0.224
AGCCTCCT	-0.16
ACCCTAGG	-0.0831
AATGGCTA	-0.0433
CAACGCAA	0.251
GGCGAACA	-0.0205
ACATGGGG	0.276
GCTAACAC	0.366
CGTCGTCC	-0.209
CCCGGCGG	-0.344
AAATGAGC	-0.0664
ATATCCAC	-0.0158
CGTACCTC	-0.243
AGGCGTAT	0.177
ATTCGGCG	-0.193
AAATCAGC	0.12
GAACAATC	-0.0347
CTTCGCCC	-0.319
CATGCAGG	-0.0438
GTTGAATA	0.252
AGTGATGC	-0.108
ACCGGGCT	-0.171

Sequence	PBM E-score
AGATACAC	0.265
ACTAATTA	0.314
GATTCGAA	0.0241
GCCGATCA	-0.0347
CACCATCC	-0.234
AGATTGCT	-0.0457
CATCACAC	0.192
ATAGACAC	0.196
TGGACCAA	0.033
AGTTCCTC	-0.12
CCAACCGG	-0.199
ACTAGACG	0.151
CACAAATG	0.0315
GTACGGCA	-0.0357
GCGGACCC	-0.26
CAACGGAA	0.0881
AAGATACA	0.224
AAGAAGTA	0.103
ATATGGGG	-0.302
CACCAAGC	-0.0969
AGAGAGCG	-0.134
GGTCTGTA	0.00136
ATGGGGGC	-0.268
CAGTCCCC	-0.394
GTCACGGA	-0.176

Sequence	PBM E-score
CAGATTGG	-0.225
ATATGAAC	0.168
CCAGTGAC	-0.125
ACCGGCAT	-0.215
AAGGCGAA	-0.309
GTCTGAAC	-0.155
AAGAATTC	-0.00323
ACGTTTTC	0.115
ATTAAAAA	0.249
AGGCAACC	-0.202
GTCCGGCA	-0.193
AAAGGCGC	0.00069
TCAAGTCA	-0.0744
AACCAGGC	-0.0673
TCGTGAGA	-0.107
CTCGCACC	-0.114
CGTGAGAA	-0.0614
AACATTGA	0.253
CCACTCGA	0.0958
